From PubChem BioAssay (NCI)
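These data come from cells grown in 96-well plates and exposed to compound for 48 hours at five concentrations. Here, GI50 denotes the concentration required for 50% inhibition of growth. TGI is the concentration that stops growth completely.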

What follows are molecules tested on NCI-H322M lung (assay: NCI-60 cell line screen, 48 h).

Row | Structure (SMILES) | TGI | GI50
1 | CCOC(=O)CCC(NC(=O)Cc1ccc(Oc2nc3ccccc3nc2-c2ccccc2)cc1)C(=O)OCC (stereo not given) | > 100 µM | 
2 | COc1ccc([C@]23CCN4COC[C@@H]([C@H]42)C2(CC3)OCC(C)(C)CO2)cc1OC | > 100 µM | 
3 | CCc1ccc2nccc(NCCCN(C)C)c2c1[N+](=O)[O-] | > 100 µM | 
4 | COC(=O)C1=CON2C3CC4CC(C3)CC(C4)C12C (stereo not given) | > 100 µM | 
5 | CCn1c(=O)c2ccccc2n2c(=O)c3cc4ccccc4cc3nc12 | > 100 µM | 
6 | CC(=O)Oc1cc(OC(C)=O)c2c(C)cc(=O)oc2c1 | > 100 µM | 
7 | Cc1ccc(C=NC23CC4CC(CC(C4)C2)C3)cc1 | > 100 µM | 
8 | CC(C)(C)OC(=O)N1[C@@H]2Cc3ccc(N)cc3[C@@]1(C)c1ccccc12 | > 100 µM | 
9 | CN(CC(=O)O)Cc1oc(CO)cc(=O)c1O | > 100 µM | 
10 | COc1cc2c3c(n(CCCBr)c(=O)c2cc1OC)-c1ccc(F)cc1C3=O | > 100 µM | 60.8 µM
11 | COc1cccc(-c2nccc3c(OCc4ccccc4)c(OC)c(OC)cc23)c1 | > 100 µM | 
12 | Cn1ccnc1CCc1ccc(Cl)c(Cl)c1 | > 100 µM | 
13 | CCN(CC)c1ccc(N=C2C=C(Cl)C(=O)c3ncccc32)c(C)c1 | 80.4 µM | 
14 | O=[N+]([O-])c1cccc(Cl)c1Oc1ccc(S(=O)(=O)/N=C(\NO)Nc2ccc(Cl)cc2)cc1 | 24.8 µM | 
15 | Clc1cc(-c2ccccc2)nc2ccccc12 | > 100 µM | 
16 | CCC1(NC(=O)c2cc(F)c(F)c(F)c2F)C(=O)NC(=O)N(C(C)C)C1=O (stereo not given) | > 100 µM | 40.6 µM
17 | CCN(CC)CCOc1ccc(C(O)(Cc2ccc(OC)cc2)c2ccccc2)cc1 (stereo not given) | > 100 µM | 
18 | COc1ccc2c(c1)c1nn(CCN3CCCCC3)c3ccc4c(=O)n(CCN(C)C)c(=O)n2c4c13 | 0.264 µM | 
19 | C=C1C(OC/C=C/COC2O[C@@H]3O[C@@]4(C)CC[C@H]5[C@H](C)CC[C@@H](C2=C)[C@@]35OO4)O[C@@H]2O[C@@]3(C)CC[C@H]4[C@H](C)CC[C@@H]1[C@@]24OO3 (stereo not given in full) | > 100 µM | 22.3 µM
20 | CC12ON(P(=O)(c3ccccc3)c3ccccc3)C(C)(c3ccccc31)c1ccccc12 | > 100 µM | 
21 | O=C1C2=C(SCCS2)C(=O)c2c(Sc3ccc(Cl)cc3)c(Sc3ccc(Cl)cc3)c(Sc3ccc(Cl)cc3)c(Sc3ccc(Cl)cc3)c21 | > 100 µM | 
22 | Cc1ccc2c(C(=O)c3c(C)n(CCN4CCOCC4)c4ccccc34)cccc2c1 | 99.4 µM | 
23 | CNC1=C(C(=O)OC)SC(c2ccccc2)(c2ccccc2)SC1 | > 100 µM | 22.5 µM
24 | CNC(=S)NNc1ncnc2c1ncn2-c1ccc(C)cc1 | > 100 µM | 
25 | Cc1ncc(C(=O)Nc2ccc(CN3CCN(C)CC3)c(C(F)(F)F)c2)cc1C#Cc1c(N)ncc2ccccc12 | 1.1 µM | 0.562 µM

Row | Structure (SMILES) | TGI | GI50
26 | COc1ccc2c(CCNC(=O)/C=C/c3ccccc3)c(C(C)=O)[nH]c2c1[N+](=O)[O-] | > 100 µM | 
27 | O=c1cccccc1[O-].O=c1cccccc1[O-].O=c1cccccc1[O-].[Ce+3] | 86.1 µM | 
28 | CC(NC(=O)C(=O)N/N=C1\C[C@@H](c2ccccc2)Nc2ccccc21)c1ccccc1 (stereo not given in full) | > 100 µM | 
29 | COc1cc(CCN(C)C)cc(OC)c1OC | > 100 µM | 
30 | COc1c(Cl)ccc2c(-c3nc4cc(Cl)c(F)cc4s3)cc(=O)oc12 | > 100 µM | 56.6 µM
31 | COC1(c2cccs2)c2ccccc2C(OC)(c2cccs2)c2ccccc21 (stereo not given) | > 100 µM | 
32 | COC(=O)[C@H](C)NC(=O)[C@@H](OC)[C@@H]1Cc2cc3cc(OC4CC(OC5CC(O)C(O)C(C)O5)C(O)C(C)O4)c(C)c(O)c3c(O)c2C(=O)[C@H]1OC1CC(OC2CC(OC3CC(C)(O)C(O)C(C)O3)C(O)C(C)O2)C(O)C(C)O1 (stereo not given in full) | > 50 µM | 0.117 µM
33 | C=C1CCCC2[C@](C)(CC3=C(O)C(=O)C=C(OC)C3=O)[C@@H](C)CC[C@]12C (stereo not given in full) | 16.8 µM | 
34 | O=C1/C(=C/c2ccccc2)NC(=S)N1CN1CCCCC1 | > 100 µM | 
35 | CC12CCC(C(=Nc3cc(C(F)(F)F)cc(C(F)(F)F)c3)C1=O)C2(C)C (stereo not given) | > 100 µM | 
36 | COc1ccccc1C1(C)SCc2nc3ccccc3n21 (stereo not given) | > 10 µM | 
37 | COc1nc2c(nc(N)n2C2OCC(O)C(O)C2O)c(=O)n1C (stereo not given) | > 100 µM | 
38 | COc1ccc2c(c1)c(-c1ccc(-c3cn(C)c4ccc(OC)cc34)[nH]1)cn2C | 34.7 µM | 7.17 µM
39 | O=C(CCSc1ccnc2c(C(F)(F)F)cccc12)N/N=C/c1cc(Cl)c(Cl)cc1Cl | 72.6 µM | 28.6 µM
40 | O=C1c2ccccc2-c2c1c1ccc([N+](=O)[O-])cc1c(=O)n2CCCNCCO | 3.61 µM | 0.943 µM
41 | Cc1ccc(C2=C(c3ccc(C)cc3)C(c3ccc(C)cc3)=C(c3ccc(C)cc3)C2=O)cc1 | > 100 µM | 
42 | CC1=CCC[C@H]2[C@](C)(CC3=CC(=O)C(Sc4ccccc4)=CC3=O)[C@@H](C)CC[C@]12C | 56.4 µM | 
43 | O=C1CS[C@@](CC(c2ccc(Cl)cc2)c2ccc(Cl)cc2)(c2ccc(Cl)cc2)N1 | > 100 µM | 
44 | C=Cc1nc(C#N)c(N)o1 | > 100 µM | 
45 | CCNNC(=O)[C@@H]1[C@H](c2cc(OC)c(OC)c(OC)c2)c2cc3c(cc2[C@H](O)[C@H]1CO)OCO3 | > 100 µM | 
46 | COC1=C2C=[N+](C)C3C(=C2C=CC1OC)Cc1cc2c(cc13)OCO2 (stereo not given) | 30.5 µM | 
47 | CCOC(=O)c1ccc(N2C(=O)Cc3ccccc3C2=O)cc1 | > 100 µM | 
48 | O=C(NC1C2CC3CC(C2)CC1C3)/C(Cl)=C1/Sc2ccccc2NC1=O (stereo not given) | > 100 µM | 
49 | O=[N+]([O-])c1ccc(O)c(/C=N/c2nc(-c3ccccc3)cs2)c1 | 63.1 µM | 
50 | CC(C)CC12CC3CCC(CNC1=O)C32C (stereo not given) | > 100 µM | 
